# Laboratory results: the supplement of paper PMC12632987
# The full ranking holds about 1,800 sequences; the median of “median log2 fold change of GCK-ALFA target abundance (FLAG IP / Myc IP barcode read proportion)” is about 0.14, and the lowest 2% start at about -0.84. This is one part of the list.
# T1: TRAF2, Q12933
# T1 chain: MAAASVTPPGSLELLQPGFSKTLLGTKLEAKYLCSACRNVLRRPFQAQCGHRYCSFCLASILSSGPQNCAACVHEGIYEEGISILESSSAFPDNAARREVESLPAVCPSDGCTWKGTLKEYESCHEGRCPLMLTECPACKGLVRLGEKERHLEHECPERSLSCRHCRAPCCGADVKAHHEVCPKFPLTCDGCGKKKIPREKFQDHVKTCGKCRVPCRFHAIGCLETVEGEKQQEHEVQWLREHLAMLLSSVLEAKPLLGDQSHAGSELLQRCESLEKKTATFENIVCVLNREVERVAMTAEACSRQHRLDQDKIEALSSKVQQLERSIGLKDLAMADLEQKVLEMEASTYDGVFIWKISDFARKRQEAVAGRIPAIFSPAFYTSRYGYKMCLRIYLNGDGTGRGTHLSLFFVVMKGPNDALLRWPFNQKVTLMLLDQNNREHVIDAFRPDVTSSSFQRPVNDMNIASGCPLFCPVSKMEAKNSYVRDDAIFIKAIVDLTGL
# B1: traf2_out_6_166_2464 (protein)
# chain: EEELLEEIRRIAKELGKYPAEVVIEAFERVAAELTDESARLARQLASGVRQGQKAGLPVETVVTAYADGMIALGVPVERILELLRRVLERAKELAAEREA
# B2: traf2_out_15_48_1371 (protein)
# chain: SVEELHAAASKVADRFDEQIDKILKELEKLAKETKDPRVEELLKKAKEAAKKYGLTGVIHVMREALPELSPEVAAKVKELIAEAEKVRKEAGKEMAKVLK
# B3: traf2_out_15_17_1305 (protein)
# chain: KISPEDGRKLTDLAIKAKEEAKKLVEEVLKELEKKGLLTPEQRERLNFLINNPGISLHTIRDEVEKILKEVGEEELLKEAKEKLDALIKEVNDKANEMLK
# B4: traf2_out_11_155_714 (protein)
# chain: EEKLKLNQELVDEVSAIADEAEARLEALIAEVEAEDPAVAAELRAVLAAHADAGVTTKLLLAARVLEAAGRAEEAARVRAILAEYQKKANELYKEYEKKL
# B5: traf2_out_5_189_2315 (protein)
# chain: SAREEEQKALNEKAKEIGKEVTKLINEMKKEGKSWEEIAEKMLEKMKTLPVDDAALYSGIFYSIMLGEAIANNDEKLKEIAEKFREKAKELIKEKEKKEA
# B6: traf2_out_17_162_1601 (protein)
# chain: SELEKKKEEIEKELEELKKERKELEEKLKNIENLTKEEISDLLVEASEKRRKALELIEELEELKEELDEEFYEEKKEEAEEIAEEFQKIANKLYEALLKK
# B7: traf2_out_11_169_805 (protein)
# chain: EEEEKNRKINDFALELNDKAVEKLKEEALKLAKEAGLDVAEVEKIFEENKGKSLSAVAAALIAYFKSKGAEEAAAKVLELYEKLKEEINKKSTEKIKELE
# B8: traf2_out_1_158_914 (protein)
# chain: DTKRNLILAVVRLVGKDAIDSAKEAGDEKLAKALKEVVEKIEKAVRELLIEKNKSVEEVIEEIKKIAEEAQKKVDPKTAKAIKTLARQIISGIRQVDKLM
# B9: traf2_out_20_3_2063 (protein)
# chain: AELEAQLEAELQAALELLEEAAKLADEETAARLKELRERLEASRELSPEDRLVELSEIKRELLRLAEEARKEGKEELAKLLEEAADELNRAMQLTYQIIQ
# B10: traf2_out_17_162_1499 (protein)
# chain: AATEAKLKALKKELEKLKKKLKELKKKLPNLPKMSKEELTDLLVEVSELKREARRLAEELKKLAKETKSKEAKKLLKEAEKLAEEAQKIANEVYKVLEAK
# B11: traf2_out_17_162_1591 (protein)
# chain: SELEEEIEEIERELEELEEELKRLKEKLKNIEKLSKEELTDLLVEASEARRRARELLERIRSLREELPEELYEELAERAERLAEEFQRIANAFYKELEKK
# B12: traf2_out_8_15_2550 (protein)
# chain: SIEEAAEKDIERLREHSDGDEESLIRTLLGMAKAELRYAKILKEEGRKEEALRTLEAARIYAERALELARAAGSPDLAAIEAEVEALKKEIEELEKEIKE
# B13: traf2_out_6_156_2456 (protein)
# chain: ALEEIKKETKEKIEEEIKKLSKASEEKKISYINDIAGAVYRGLQRAREAGASLEEIKAFGEELLKVAEEEAEKAGLDEDTKNLLLSSLNAVFEVAIEEAK
# B14: traf2_out_18_167_1873 (protein)
# chain: SEELDKEYEELTDKLVEYSEIRRALREILEALERSREEARALLEAEVAKRPDSEVLKEALEVFETKSDEEFRAFLEKKAEELQKKANEAYKKLEELEKLK
# B15: traf2_out_11_131_661 (protein)
# chain: MDAVAMAKSVAARVDERLALAKTLSPEERTRLARQALDSIEALAEYLTSHVSEMSKEDVEEAVKILRASAKKVLAADPSVAEDVKEVEKALKKLLEAAKA
# B16: traf2_out_19_16_1990 (protein)
# chain: SAEEAKKLEEKMKEYLEKALELAKEAVENLDKLSREELMDKLVEISELIRKAKEALQKYLELAKDNPEHRKEVTAEFDKKLDEIQKLMTIIVDKILEKRK
# B17: traf2_out_9_166_2603 (protein)
# chain: RTDKQYEVIKKYTSEVAKQRQKALELLKKIGAPQELIEEVNEIMNDLLTTLFSNEEAIEKLKKKIEELKKKPEYQEVAEELEKALDAVKEGRKELAEINA
# B18: traf2_out_17_162_1609 (protein)
# chain: SELEKKKEKLKKKLEELKKKLKELTEKAKNIEKLSKEELSDLLVEASEAKREALEALEEIEKLKEKLDPEEYEKLKKEFEELAEEFQRLANIFYKELEKK
# B19: traf2_out_13_95_1161 (protein)
# chain: NPETAKKIMEVADEMLDKSLALLEELLKIAKKKGIAEEEIKEVIHAAKYHSINEAIHLLKELAKKYPELKEELEATIKELEALRREAGRRVAEILKEAEE
# Target: T1, TRAF2, Q12933
# Experiment: median log2 fold change of GCK-ALFA target abundance (FLAG IP / Myc IP barcode read proportion) (log2 ratio); each designed protein is fused to an ALFA-tag nanobody in HEK293 cells to bring the named protein to FLAG-tagged glucokinase (GCK); Myc marks an untargeted standard; higher = target protein stabilised (more abundant)
# Conditions: target protein: 3xFLAG-MCP-GCK-ALFA reporter; HEK293 landing pad (RPLP)
# Method in brief: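 HEK293 landing-pad cells received a recombined binder library fused to the ALFA nanobody and were induced with 2 μg mL^−1 doxycycline, then transfected with a plasmid encoding a FLAG-tagged target and a Myc-tagged standard. Lysates were collected after 48 h for anti-FLAG and anti-Myc immunoprecipitation, and the circular RNA barcodes were reverse transcribed, amplified and sequenced. Target abundance for each binder is the median log2 ratio of FLAG to Myc barcode read proportions. Barcodes had to reach a proportion of at least 10^−7 in both replicates, each binder needed at least 3 barcodes per replicate, a pseudocount of 10^−6 was applied, and the two replicates were pooled.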
row,Binder,median log2 fold change
1,B1,0.0466
2,B2,0.233
3,B3,0.373
4,B4,0.256
5,B5,0.387
6,B6,0.308
7,B7,0.261
8,B8,-0.512
9,B9,0.353
10,B10,0.388
11,B11,0.0293
12,B12,0.0856
13,B13,0.184
14,B14,0.0619
15,B15,0.0951
16,B16,-0.19
17,B17,0.161
18,B18,0.154
19,B19,-0.211
